In patent publication US20190263890A1 (CSL BEHRING LENGNAU, published 2019) one finds Kd data, which are given here for two molecules.

By Kd is commonly meant the equilibrium constant for the complex coming apart.

For assay [1], the target named is T1, rVIII-SingleChain (recombinant single-chain Factor VIII) (Homo sapiens (Human), UniProt P00451 20-2351).
T1 construct: also called FVIII; rFVIII
T1 sequence: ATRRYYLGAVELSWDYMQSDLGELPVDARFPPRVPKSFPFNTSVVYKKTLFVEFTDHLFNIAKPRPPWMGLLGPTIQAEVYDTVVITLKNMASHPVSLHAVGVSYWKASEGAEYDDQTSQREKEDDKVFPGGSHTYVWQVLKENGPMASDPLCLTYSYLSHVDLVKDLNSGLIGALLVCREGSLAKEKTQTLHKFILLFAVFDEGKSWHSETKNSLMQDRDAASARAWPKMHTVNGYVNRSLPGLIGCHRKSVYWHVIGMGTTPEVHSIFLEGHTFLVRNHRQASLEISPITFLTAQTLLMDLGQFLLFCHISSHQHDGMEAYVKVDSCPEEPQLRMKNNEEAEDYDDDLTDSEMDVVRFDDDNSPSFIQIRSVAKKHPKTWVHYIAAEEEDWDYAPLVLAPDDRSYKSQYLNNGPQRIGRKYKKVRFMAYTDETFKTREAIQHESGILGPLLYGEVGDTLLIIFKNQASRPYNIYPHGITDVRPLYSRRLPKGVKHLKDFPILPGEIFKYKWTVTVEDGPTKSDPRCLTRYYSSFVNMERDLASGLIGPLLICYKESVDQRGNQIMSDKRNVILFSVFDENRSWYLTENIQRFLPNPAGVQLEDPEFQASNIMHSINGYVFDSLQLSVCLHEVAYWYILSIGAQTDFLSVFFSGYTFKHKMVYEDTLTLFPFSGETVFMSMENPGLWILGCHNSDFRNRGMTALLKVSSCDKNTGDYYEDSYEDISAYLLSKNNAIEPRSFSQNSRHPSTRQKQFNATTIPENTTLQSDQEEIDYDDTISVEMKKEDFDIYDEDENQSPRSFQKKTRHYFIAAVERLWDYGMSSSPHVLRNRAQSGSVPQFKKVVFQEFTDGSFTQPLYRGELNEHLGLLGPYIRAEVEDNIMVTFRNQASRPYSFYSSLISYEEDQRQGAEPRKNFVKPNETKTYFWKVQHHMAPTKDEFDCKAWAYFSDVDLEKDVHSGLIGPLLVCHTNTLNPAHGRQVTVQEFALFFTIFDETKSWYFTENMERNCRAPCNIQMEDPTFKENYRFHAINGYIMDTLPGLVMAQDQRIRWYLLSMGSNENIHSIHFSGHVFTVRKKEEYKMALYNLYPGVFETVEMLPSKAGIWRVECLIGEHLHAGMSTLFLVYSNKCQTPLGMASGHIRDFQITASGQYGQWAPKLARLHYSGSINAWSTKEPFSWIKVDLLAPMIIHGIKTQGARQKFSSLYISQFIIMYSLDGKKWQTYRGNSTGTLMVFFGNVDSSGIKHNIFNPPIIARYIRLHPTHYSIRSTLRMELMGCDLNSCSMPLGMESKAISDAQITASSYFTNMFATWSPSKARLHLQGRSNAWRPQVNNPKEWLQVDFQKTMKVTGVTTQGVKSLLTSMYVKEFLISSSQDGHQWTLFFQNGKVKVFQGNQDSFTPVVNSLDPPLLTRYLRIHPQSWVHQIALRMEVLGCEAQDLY
Briefly: SPR (Biacore T200), D′D3-FP captured on anti-albumin antibody, rVIII-SingleChain as analyte, single cycle kinetics, 25 °C; D′D3-FP dimer preparation (not monomer). As to the method:
(§1) A VWF fragment (1-1242) albumin fusion (D′D3-FP) was expressed in a bioreactor; after purification as described above and isolation of monomer and dimer, the affinity of FVIII to these preparations was assessed through surface plasmon resonance via a Biacore instrument (T200, GE Healthcare).
(§2) Dimeric and monomeric D′D3-FP proteins, respectively, were immobilized to the covalently coupled anti-albumin antibody by a flow of the D′D3-FP proteins (5 μg/mL) over the chip for 3 min (flow rate of 10 μL/min).
(§3) To create binding curves for FVIII, each D′D3-FP protein preparation was diluted in running buffer (HBS-P+: 0.1 M HEPES, 1.5 M NaCl and 0.5% v/v Surfactant P20, pH 7.4; product code BR100671, GE Healthcare) to concentrations of 0.25 nM, 0.5 nM, 1 nM, 3 nM and 4 nM. By performing a single cycle kinetic, samples with ascending concentrations of each dilution were flown over the chip for 2 min (flow rate 30 μL/min.), followed by a dissociation time of 10 min. with running buffer HBS-P+. All measurements were performed twice. The temperature for the measuring procedure was adjusted to +25° C.
Background: Surface plasmon resonance follows binding to a sensor surface in real time, without labels.

The target of assay [2] is T1, rVIII-SingleChain (recombinant …). Description: SPR (Biacore T200), D′D3-FP captured on anti-albumin antibody, rVIII-SingleChain as analyte, single cycle kinetics, 25 °C; D′D3-FP monomer preparation (not dimer). The protocol:
as §1, §2, §3

B1: D′D3-FP Dimer (dimeric VWF D′D3 albumin fusion protein) (other)
chain: SLSCRPPMVKLVCPADNLRAEGLECTKTCQNYDLECMSMGCVSGCLCPPGMVRHENRCVALERCPCFHQGKEYAPGETVKIGCNTCVCRDRKWNCTDHVCDATCSTIGMAHYLTFDGLKYLFPGECQYVLVQDYCGSNPGTFRILVGNKGCSHPSVKCKKRVTILVEGGEIELFDGEVNVKRPMKDETHFEVVESGRYIILLLGKALSVVWDRHLSISVVLKQTYQEKVCGLCGNFDGIQNNDLTSSNLQVEEDPVDFGNSWKVSSQCADTRKVPLDSSPATCHNNIMKQTMVDSSCRILTSDVFQDCNKLVDPEPYLDVCIYDTCSCESIGDCACFCDTIAAYAHVCAQHGKVVTWRTATLCPQSCEERNLRENGYECEWRYNSCAPACQVTCQHPEPLACPVQCVEGCHAHCPPGKILDELLQTCVDPEDCPVCEVAGRRFASGKKVTLNPSDPEHCQICHCDVVNLTCEACQEPGGSSGGSGGSGGSGGSGGSGGSGGSGGSGGSGS[about 600 residues not listed]
notes: Expressed from VWF aa 1-1242 plus linker plus albumin; The dimer fraction was isolated by size exclusion chromatography; The monomers are disulfide-linked within the truncated VWF part; In the SPR assay it was captured on an anti-albumin antibody; also called dimeric D′D3-FP; rD′D3-FP
For B1, in assay [1], the Kd worked out at 0.034 nM.

B2: D′D3-FP Monomer (monomeric VWF D′D3 albumin fusion protein) (other)
chain: SLSCRPPMVKLVCPADNLRAEGLECTKTCQNYDLECMSMGCVSGCLCPPGMVRHENRCVALERCPCFHQGKEYAPGETVKIGCNTCVCRDRKWNCTDHVCDATCSTIGMAHYLTFDGLKYLFPGECQYVLVQDYCGSNPGTFRILVGNKGCSHPSVKCKKRVTILVEGGEIELFDGEVNVKRPMKDETHFEVVESGRYIILLLGKALSVVWDRHLSISVVLKQTYQEKVCGLCGNFDGIQNNDLTSSNLQVEEDPVDFGNSWKVSSQCADTRKVPLDSSPATCHNNIMKQTMVDSSCRILTSDVFQDCNKLVDPEPYLDVCIYDTCSCESIGDCACFCDTIAAYAHVCAQHGKVVTWRTATLCPQSCEERNLRENGYECEWRYNSCAPACQVTCQHPEPLACPVQCVEGCHAHCPPGKILDELLQTCVDPEDCPVCEVAGRRFASGKKVTLNPSDPEHCQICHCDVVNLTCEACQEPGGSSGGSGGSGGSGGSGGSGGSGGSGGSGGSGS[about 600 residues not listed]
notes: The monomer fraction was isolated by size exclusion chromatography; In the SPR assay it was captured on an anti-albumin antibody; also called monomeric D′D3-FP
Turning to B2, the Kd in assay [2] came to 30 nM.
